Values joined by “and” are separate entries in the source; they are usually repeats but may differ in a detail not shown here. Equal entries are not always repeated. Out of some 420,000 compounds screened, about 50,000 (12%) were called active. Inconclusive means that the source gave no clear call. Such entries were picked first, then a sample of the others. Calls follow the shape of the dose curve; as a rule, active = well fitted inhibition curve with a large enough effect; inconclusive = small, poorly fitted or top-dose-only effect; inactive = flat fitted curve, though single readings scatter. Potencies of inconclusive entries are doubtful fits and often do not repeat.
Experiment: qHTS for Inhibitors of human tyrosyl-DNA phosphodiesterase 1 (TDP1): qHTS in cells in presence of CPT; also: nearly all actives have a fitted effect of over 55% in size
Settings: chicken DT40 Tdp1-/-;hTDP1 cells + 20 nM CPT, ATP luminescence, 48 h; activity change, negative = growth inhibition: at 46.2 µM (top of the series) unless noted
Method in brief: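 Cell growth measured by CellTiter-Glo luminescence after a minimum 48 h, 37 C compound exposure with 20 nM CPT in Tdp1-knockout DT40 cells stably expressing hTDP1, seeded 400/well; qHTS titration format.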
% is scaled to controls: 0 for no effect and ±100 for the full control effect; potency is read from the fitted curve at half-maximal effect; tags tell the direction and shape of the fitted curve.

Question: With `CCCCNC(=O)N(O)C1N(/N=C/c2ccccc2O)C(=S)SC1(C)C` (stereo not given) as the compound, how does the Potency read?
Answer: The Potency was “inactive”.

Question: For `COCCNC(=S)N1CCCN(c2nc3cc(C)ccc3cc2C#N)CC1`, which Potency is on record?
Answer: Its Potency is inconclusive: 16.4 µM [inhibitor, single point].

Question: Which Potency does the source give for `Cc1ccc(S(=O)(=O)NCCOc2cc(C)ccc2C)cc1` here?
Answer: The Potency was inconclusive: 20.6 µM [inhibitor, single point].

Question: With `O=C(COc1ccc(Br)cc1CNC1CCCC1)Nc1ccccc1` as the compound, how does the Potency read?
Answer: Its Potency is inconclusive: 18.4 µM [inhibitor, single point].

Question: For `Cc1ccc(OCC(O)Cn2c(N3CCCCC3)nc3c2c(=O)[nH]c(=O)n3C)cc1` (stereo not given), which Potency is on record?
Answer: Its Potency is inconclusive: 25.9 µM [inhibitor, single point].

Question: For `CC1=C(C(=O)OC(C)C)C(c2ccc(Cl)cc2)n2c(sc(=Cc3ccc(OCC(=O)O)cc3)c2=O)=N1` (stereo not given), which Potency is on record?
Answer: Its Potency is inconclusive: 29.1 µM [inhibitor, single point].

Question: With `Cc1ccc(CN2C(=O)C3(c4ccccc42)N(c2ccc(C)c(Cl)c2)C(=O)CS3(=O)=O)cc1` (stereo not given) as the compound, how does the Potency read?
Answer: The Potency was inconclusive: 29.1 µM [inhibitor, single point].

Question: Which Potency does the source give for `CN1C(=O)/C(=C/c2ccc(OCc3ccccc3F)cc2)N(C)C1=S` here?
Answer: Its Potency is inconclusive: 25.9 µM [inhibitor, single point].

Question: For `CCCCC(=O)Nc1nnnn1CCC`, which Potency is on record?
Answer: Its Potency is “inactive”.

Question: Which Potency does the source give for `COc1cc(S(=O)(=O)N(C)C)ccc1F` here?
Answer: Its Potency is “inactive”.

Question: Which Potency does the source give for `Cc1ccc(S(=O)(=O)/N=C(\N)Nc2nc(C)c3ccccc3n2)cc1` here?
Answer: The Potency was “inactive”.

Question: For `Cc1ccc(C(=O)NC(=S)NNC(=O)c2cccc([N+](=O)[O-])c2)cc1`, which Potency is on record?
Answer: The Potency was inconclusive: 29.1 µM [inhibitor, single point].

Question: With `COc1cccc(/C=C(\C#N)C(=O)Nc2ccc(NC(C)=O)cc2)c1OC` as the compound, how does the Potency read?
Answer: The Potency was “inactive”.

Question: With `Cc1nc(-c2ccc(Br)cc2)ccc1C(=O)O` as the compound, how does the Potency read?
Answer: The Potency was “inactive”.

Question: Which Potency does the source give for `CN1CCN(CC(=O)Nc2nc3ccccc3s2)CC1` here?
Answer: Its Potency is “inactive”.

Question: With `Cc1ccc(-c2cnc(C(O)c3cc(F)cc(Cl)c3)[nH]2)cc1` (stereo not given) as the compound, how does the Potency read?
Answer: Its Potency is inconclusive: 29.1 µM [inhibitor, single point].

Question: For `Cc1cc(NC(=O)/C(C#N)=C/c2ccc(-c3ccc(SC(F)F)cc3)o2)n(-c2ccccc2)n1`, which Potency is on record?
Answer: Its Potency is inconclusive: 25.9 µM [inhibitor, single point].

Question: For `O=C(COc1ncnc2cc([N+](=O)[O-])ccc12)NC(=O)NC1CCCCC1`, which activity change, negative = growth inhibition is on record?
Answer: Its activity change, negative = growth inhibition is inconclusive: -31.2% [inhibitor].

Question: With `COc1ccc(NC(=O)CSc2cn(CCNC(=O)c3ccc(OC)cc3)c3ccccc23)cc1` as the compound, how does the Potency read?
Answer: The Potency was inconclusive: 29.1 µM [inhibitor, single point].

Question: With `CCOC(=O)c1c(NC(=O)CSc2nnc(-c3c[nH]c4ccccc34)n2CCOC)sc2c1CCCC2` as the compound, how does the Potency read?
Answer: Its Potency is active: 23.1 µM.

Question: Which Potency does the source give for `Cc1cc(=O)oc2c(N)nccc12` here?
Answer: The Potency was inconclusive: 25.9 µM [inhibitor, single point].

Question: Which Potency does the source give for `CC(C)(C)OC(=O)N(Cc1ccccc1)Cc1cccc(OCc2cccc(NC(=O)C3CC3)c2)c1` here?
Answer: Its Potency is inconclusive: 29.1 µM [inhibitor, single point].

Question: With `O=C(Nc1nc(-c2ccccc2)cs1)c1ccc(S(=O)(=O)N2CCc3ccccc32)cc1` as the compound, how does the Potency read?
Answer: The Potency was inconclusive: 16.4 µM [inhibitor, partial curve].

Question: For `Cc1ccc(S(=O)(=O)CC(=O)N2CCN(c3cccc(C(F)(F)F)c3)CC2)cc1`, which Potency is on record?
Answer: The Potency was active: 16.4 µM.

Question: For `Cc1c(C)c2ccc(O)c(CN3CCCC3)c2oc1=O`, which Potency is on record?
Answer: The Potency was “inactive”.

Question: Which Potency does the source give for `O=C(CCC1N=C2c3ccccc3N=C(SCc3cccc(Cl)c3)N2C1=O)NCCc1ccccc1` (stereo not given) here?
Answer: The Potency was inconclusive: 29.1 µM [inhibitor, single point].

Question: Which Potency does the source give for `COc1ccc(NC(=O)CCS(=O)(=O)c2ccc3c(c2)n(C)c(=O)c(=O)n3C)cc1Cl` here?
Answer: The Potency was “inactive”.

Question: Which Potency does the source give for `Cc1nn(-c2ccccc2)c2c1C(c1ccc([N+](=O)[O-])cc1)N1C(=N2)C(=O)Nc2ccccc21` (stereo not given) here?
Answer: The Potency was inconclusive: 23.1 µM [inhibitor, single point].

Question: For `COc1cccc(N2CCN(c3nc(C)cc(C)c3C#N)CC2)c1`, which Potency is on record?
Answer: Its Potency is “inactive”.

Question: With `COc1ccc2nc(C)cc(SCC(=O)Nc3c(C)cc(C)cc3C)c2c1` as the compound, how does the activity change, negative = growth inhibition read?
Answer: Its activity change, negative = growth inhibition is inconclusive: -33.8% [inhibitor].

Question: Which Potency does the source give for `Cc1ccccc1/C=C\c1nc2ccccc2c(=O)[nH]1` here?
Answer: Its Potency is active: 25.9 µM.

Question: For `CC12CCC(C(=O)NCc3ccccc3Cl)(OC1=O)C2(C)C` (stereo not given), which Potency is on record?
Answer: The Potency was “inactive”.

Question: Which Potency does the source give for `S=C(NCCc1ccccc1)Nc1ccc(Cl)cc1` here?
Answer: The Potency was active: 20.6 µM.

Question: Which Potency does the source give for `CCC(C(=O)NC1CCCCCC1)n1nc(C)n2c(cc3occc32)c1=O` (stereo not given) here?
Answer: Its Potency is inconclusive: 9.2 µM [inhibitor, partial curve].

Question: Which Potency does the source give for `Cc1oc(-c2cccc(Br)c2)nc1Cn1c(SCc2cccc(F)c2)nc2cccnc21` here?
Answer: Its Potency is inconclusive: 20.6 µM [inhibitor, single point].

Question: With `O=C1NC[C@H](CCCCN2C[C@H](Cc3ccccc3)N(CCC3CCCCC3)C(=O)C2=O)N(CC2CCCCC2)C1=O` as the compound, how does the Potency read?
Answer: Its Potency is inconclusive: 25.9 µM [inhibitor, single point].

Question: Which Potency does the source give for `O=C(Nc1cccc(Cl)c1)OCc1ccccn1` here?
Answer: The Potency was “inactive”.

Question: With `CN(C)CCNC(=O)/C(=C/c1ccc(-c2ccc(Cl)cc2Cl)o1)NC(=O)c1ccccc1` as the compound, how does the Potency read?
Answer: The Potency was inconclusive: 25.9 µM [inhibitor, single point].

Question: Which Potency does the source give for `CCN(CC(=O)NCc1ccc(F)cc1)C(=O)/C=C/c1ccc(OC)cc1` here?
Answer: The Potency was inconclusive: 29.1 µM [inhibitor, single point].

Question: Which Potency does the source give for `Cc1cc(Cl)ccc1C(O)c1ncc(-c2cccc(C(F)(F)F)c2)[nH]1` (stereo not given) here?
Answer: The Potency was inconclusive: 25.9 µM [inhibitor, single point].

Question: Which Potency does the source give for `COc1ccc(Br)cc1CNC(=O)CSc1n[nH]c(-c2ccccc2)n1` here?
Answer: The Potency was active: 13 µM.

Question: Which Potency does the source give for `CC1=C(C(=O)OC2CCCCC2)C(c2ccccc2)NC(=O)N1` (stereo not given) here?
Answer: The Potency was inconclusive: 20.6 µM [inhibitor, single point].

Question: For `CCc1nc(SCC(=O)NCc2ccccc2)c2c(=O)n(C)c(=O)n(C)c2n1`, which Potency is on record?
Answer: The Potency was inconclusive: 3.26 µM [inhibitor, partial curve, poor fit].

Question: Which Potency does the source give for `COc1ccc(-c2cc(C(=O)N3CCCCCC3)c3ccccc3n2)cc1OC` here?
Answer: Its Potency is inconclusive: 25.9 µM [inhibitor, single point].

Question: With `CCOC(=O)CSc1cccc2cccnc12` as the compound, how does the Potency read?
Answer: Its Potency is active: 5.8 µM.

Question: With `c1ccc(Oc2nc(-c3ccccn3)nc3ccccc23)cc1` as the compound, how does the Potency read?
Answer: The Potency was active: 2.59 µM.

Question: With `Cc1ccc(S(=O)(=O)N2CCOCC2)cc1NC(=O)Cn1nc(C)c([N+](=O)[O-])c1C` as the compound, how does the Potency read?
Answer: Its Potency is “inactive”.

Question: With `CCC(Nc1ccc(OC)cc1)C(=O)N/N=C/c1ccc([N+](=O)[O-])cc1` (stereo not given) as the compound, how does the Potency read?
Answer: The Potency was inconclusive: 23.1 µM [inhibitor, single point].

Question: Which Potency does the source give for `Cc1cc(Nc2ccccc2)n2nc(C)c(-c3ccccc3)c2n1` here?
Answer: Its Potency is “inactive”.

Question: Which activity change, negative = growth inhibition does the source give for `CCOc1ccc(NC(c2ccccc2)P(=O)(OC)OC)cc1` (stereo not given) here?
Answer: Its activity change, negative = growth inhibition is inconclusive: -33.5% [inhibitor].

Question: With `O=[N+]([O-])c1ccc(OC(F)F)c(/C=N/n2cnnc2)c1` as the compound, how does the Potency read?
Answer: The Potency was active: 5.8 µM.

Question: Which Potency does the source give for `CCc1ccn2cc(-c3cc(-c4ccccc4)no3)nc2c1` here?
Answer: Its Potency is inconclusive: 25.9 µM [inhibitor, single point].

Question: Which Potency does the source give for `CC1=C(C(=O)Nc2ccccc2)C(c2ccc(O)cc2)n2nc(-c3ccc(Cl)cc3)nc2N1` (stereo not given) here?
Answer: Its Potency is inconclusive: 29.1 µM [inhibitor, single point].

Question: For `CCCS(=O)(=O)N1CCC(Cc2ccc(OC)cc2)(C(=O)OCC)CC1`, which Potency is on record?
Answer: Its Potency is inconclusive: 18.4 µM [inhibitor, single point].

Question: Which Potency does the source give for `CCc1ccc(NC(=O)C(=O)NNC(=O)c2cccc(OC)c2)cc1` here?
Answer: The Potency was inconclusive: 18.4 µM [inhibitor, single point].

Question: For `CCOC(=O)C1(Cc2ccc(Cl)cc2)CCN(Cc2nccn2CC)CC1`, which Potency is on record?
Answer: The Potency was active: 20.6 µM.

Question: Which Potency does the source give for `O=c1c(Cc2ccc(Cl)cc2Cl)c(O)ccn1Cc1ccc(Cl)cc1` here?
Answer: The Potency was “inactive”.

Question: For `CCOC(=O)N1CCN(Cc2nc(-c3cccc(C)c3)no2)CC1`, which Potency is on record?
Answer: Its Potency is inconclusive: 15.8 µM [inhibitor, partial curve].

Question: With `Cc1n[nH]c(C)c1S(=O)(=O)N1CCc2ccccc21` as the compound, how does the Potency read?
Answer: The Potency was “inactive”.

Question: For `Cc1ccc(/C=N/NS(=O)(=O)c2ccc([N+](=O)[O-])cc2)o1`, which Potency is on record?
Answer: Its Potency is “inactive”.

Question: For `Oc1c(CN2CCCCC2)cc(COCc2ccccc2)c2cccnc12`, which Potency is on record?
Answer: Its Potency is active: 4.11 µM.

Question: For `CCn1c(CN2CCCCC2)nc2cc(NC(=O)COc3ccc(C(C)(C)C)cc3)ccc21`, which Potency is on record?
Answer: The Potency was active: 11.6 µM.

Question: Which Potency does the source give for `COc1ccccc1C(=O)NCCC(=O)N1CCN(S(=O)(=O)c2ccccc2C(F)(F)F)CC1` here?
Answer: The Potency was inconclusive: 23.1 µM [inhibitor, partial curve].

Question: Which Potency does the source give for `O=C(/C=C/c1cccc([N+](=O)[O-])c1)NCCN1C(=O)S/C(=C\c2ccc(F)cc2)C1=O` here?
Answer: The Potency was inconclusive: 9.2 µM [inhibitor, partial curve].

Question: Which Potency does the source give for `O=C(COC(=O)c1ccccc1[N+](=O)[O-])c1ccc(C2CCCCC2)cc1` here?
Answer: The Potency was inconclusive: 29.1 µM [inhibitor, single point].

Question: With `Cn1c(/C=C/c2ccc(Cl)cc2Cl)c([N+](=O)[O-])c(=O)n(C)c1=O` as the compound, how does the Potency read?
Answer: The Potency was active: 8.2 µM.

Question: Which Potency does the source give for `Cc1ccc(S(=O)(=O)NCCSc2nnnn2-c2ccccc2)cc1` here?
Answer: Its Potency is inconclusive: 23.1 µM [inhibitor, single point].

Question: With `CN1CCN(C2=Nc3cc(F)ccc3Cc3ccccc32)CC1` as the compound, how does the Potency read?
Answer: The Potency was inconclusive: 26.6 µM [inhibitor, single point] and inconclusive: 29.1 µM [inhibitor, single point].

Question: For `COc1ccc(N2CCN(C(=O)C3CCN(S(=O)(=O)c4c(C)noc4/C=C/N(C)C)CC3)CC2)cc1`, which Potency is on record?
Answer: Its Potency is inconclusive: 29.1 µM [inhibitor, partial curve, poor fit].

Question: For `Cc1oc2ccc(O)c(CN3CCC(C)CC3)c2c1C(=O)Nc1ccccc1`, which Potency is on record?
Answer: The Potency was active: 14.6 µM.

From PubChem BioAssay AID686979 (National Center for Advancing Translational Sciences (NCATS), 2013)
